# According to the RNAGym collection of RNA variant scans (doi:10.7554/elife.90254):
# The source gives no read counts; variants with many changes may rest on few reads.
# B1: LINE1-mini (parent)
# chain: GGCAGAGCUCAACACAGCGUGGCAAAGUGGCUGUGGCUAGACUGCC
# Variants of: B1
# Test: self-cleavage, relative activity (ratio to wild type); higher = more cleavage; in vitro, sequencing; the parent is a self-cleaving ribozyme
row,Variant,self-cleavage
1,CGCAGAGUUCAACAUAUCGUGGCAAAGUGGCUGUGGCUAGACUGCC,0.02
2,GGCGGAGCUCAACACAGCGUGGCAAAGUGGCUGCGGUUAGACUGCC,0.04
3,GGCUGAGCUCAACACCGCGUGGCAAAGCGGCUGUGGCUAGACAGCC,0.06
4,GGCAAAGCUCAACGCAACGUAGCAAAGUGGCUAUGGCCAGACUGUC,0.07
5,GGCAGAGCUCAACACAGCGUGGCAAAGGGGAUGUGGUUAGACUCCC,0.11
6,GGCAGAGCUCAACCCAGCGUUGCAAAGUGGAUGUGGCUGGACUGCC,0.01
7,GGCAGAGCGAAAUAAAGCGUGGCGAAGUGCCUGUGGCUAGACUGCC,0.02
8,GGCAGAGCUCAACACAGCGUGACAAAGUGGCUGUCGCAAGACUGCC,0.02
9,GGCAGAGCUCAACACAGCGUGGCAAAUAGGCUGUGAGUAGACUGCC,0.07
10,GGCAGAGCUCAACACAGCGUGGCUAAGUGGCUAUGGUUAGACUGCC,0.13
11,GGCAGAGCUCAACACAGCGUACCAAAGUUGCUGUGGCUAGACUCCC,0.06
12,GGCAGAGCUCAACACAGCGUGGCAAAAUGGCUGCAGCUAGACUGCC,0.07
13,GGCAGAGCCCAACACAGCGUGGCAAAGUGUCUGUGGCUAUACUGCC,0.03
14,GGGAUAGCUCAACUCAGCGUAGCAACGUGGCUGUGGCUAGACUGCC,0.04
15,UCCAGAGCUCAAGACAGCGUGGCAAAGUGGCUGUGGCUAAACUGCC,0.02
16,GGCAGAGCACAACACAGCGUGGCAAAGGGUCUGUGGCUAGACUGCC,0.11
17,GGCAGAGCGCAACACAGCAUCGCAAAGUGGCUGUGGCUAGACUGCC,0.05
18,GGCAGAGCUCAACACAGCGUGGCAAAGUGGAUGUGGCUAAACUGAC,0.1
19,GGCAGAGCUCAACACAGGGUGGCAAAGUGUCUGUGGCCAGACUGCC,0.07

row,Variant,self-cleavage
1,GGCAGAGCUCAACACAGCGUGUCAACGUGGCUGUUGCUAGACUGAC,0.15
2,AGCUGAGCUCAACACACCGUGGCAAAGCGGAUGUGGCUACCCUGCC,0.01
3,GGUAGAGCUCAACACAGUAUGGCAAAGUGGCUGCGGCUAGACUGCC,0.04
4,GGCAGAGCUCAAGCCAGCGUGGCAAUGUGGCUGUGGCUAGACUGCC,0.09
5,GGCAGAGCUCAACACAGGGUGGCAACGUGGCUCUGGCUAGACUGCC,0.18
6,GGCAGAGCUCAACUCAGCGUUGCAAAGAGGUUGUGGCUAGACAGCU,0.02
7,GGCAGAGCUCAACACAGCGUAGCAAAGUGGCUGUGGCUUGACUCCC,0.23
8,GGCAGAGCUUAACACAGCGUGGCAAAGUGGUUGUGGCAAGACUGCC,0.03
9,GCCAGAGAUCCACACAGCGUGGCAAAGUGGCUGUGGCGAGAGUGCC,0.01
10,GGCAGAGCUCAACACAGUGUGGCAGAGUGGCUGUGGCUAGCCUUCC,0.04
11,GCCAGAGCUCAACACGGCGUGGUAAAGUGGCUGUGGCUAGACUGCC,0.02
12,GGGAGAGCUCAACACAGCGUGGCAAAGUAGCUGUGUAUAGUAUGAC,0.03
13,GGCAAACCUCAACACAGCGAGGCUAAUUGGUUGUGGCUAGACUGCC,0.07
14,GGCAGAGCUCAACACUGCGUGGCAAAGUGGCUGUGGCUCGACUGCU,0.07
15,CGCAUAGGUCAAUACAGCGUGUCAAAGUGGGUGUCGCUAUACUGCC,0.01
16,GGCAGAGCUCAACACAUCGUGGCAAAGUCGCUGUGGAUAGACUGCC,0.05
17,GGCAGAGCUCAACACAGCGUGGCAAAGAGGCUGGGGAUAGACUGCC,0
18,GGCAGCGCUACACACAGCGUGGCAAAGUGGCUGUGGCUAGACUGCC,0.05
19,GGCAGAGCUCAACACAGCGUGGGAAAGUGGGUGUGGCUAGAGUUCC,0

row,Variant,self-cleavage
1,CGCAGAGCUCAGCACAGCGUGGCAAAGUGUCUGUGGCUCGACUGCC,0.01
2,GGCGGAGAUCAAUACUGCGUGGCAAAGUGGCUGUGGCUAGACUGUC,0.2
3,GGCAGAGCUCAACAACUCGUGGCACAGUGGCCGUAGCUAGACGACU,0.01
4,GGCAGAGCUUAACACAGCGUGGCAAAGUGACUGUGCUUAGACGGGC,0.01
5,GGCAGAGCUCAAGACAGCGUGGCAAAGUUGAUGUGGCUAGACUGCC,0.04
6,GGCAGAGCACAACACAACGUGGCAAAGUGGCUGCGGCUAGACUGCG,0.09
7,GGAAGAGCUCAAAACAGCUUGGCAAAGUGGCGGUGGCUCGAAUGCC,0.14
8,GGCAGAGCAAAACACAGCGUGGCAAAGCGGCGGUGGCUAGACUGCC,0.01
9,GGGACAGCUCAACACAGCGUGGCAAAGUUGCUGUGGCUGGACUGCC,0.06
10,GGCAGAGCUCAACACAGCGUGGCAACGUGGCUGGGGCUAGCCUGCC,0.01
11,GGCAGACCUUAACACAGGGUGGCAAAGUGGCUGUGGCUAAACUGCC,0.02
12,GGCAGAGCUAAACACAGCUUGGCAAAGGGGCUGAGGCUAGACUGCC,0.03
13,GGUAGACUUCAACACAGCGUGGCUAAGUGGCUGUGCCUAAACUGCC,0.22
14,GUCAGAGCUCAACACAGCCUGGCAAAGUGGCUGUGACUAGACUGCA,0.1
15,GGCCGAGCUCAACAUAGCUUGGCAAAGUGGCCGUGGUUAGACUGCC,0.13
16,GGCCGAGAUCAACACAGCGUGGAAAACUGGCUGUGGCUAGAAUUCC,0.14
17,GGCAGUGCUAAACAGAGCGUGGCAAAGUGGCUGUGGCUGGACUGCC,0.01
18,GGCAUAGCUCAACACAGCGUGGCAUAGUGGCUGUGGCUAGACUGGC,0.05
